Test results: PMC4336329 (PLoS ONE, 2015)
Screen size: about 310,000 compounds; about 14,000 (4.5%) showed an effect of 50% or more. Effects have a minus sign here. This is one part of the list.

What follows are compounds tested against human ether-à-go-go-related gene (hERG) potassium channel (human, UniProt Q12809) (assay: primary screen, population patch clamp on CHO cells stably expressing hERG).
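Further: peak tail current of the secondary pulse compared with the same well before compound.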

human ether-à-go-go-related gene (hERG) potassium channel, sequence (Q12809 whole entry, looked up): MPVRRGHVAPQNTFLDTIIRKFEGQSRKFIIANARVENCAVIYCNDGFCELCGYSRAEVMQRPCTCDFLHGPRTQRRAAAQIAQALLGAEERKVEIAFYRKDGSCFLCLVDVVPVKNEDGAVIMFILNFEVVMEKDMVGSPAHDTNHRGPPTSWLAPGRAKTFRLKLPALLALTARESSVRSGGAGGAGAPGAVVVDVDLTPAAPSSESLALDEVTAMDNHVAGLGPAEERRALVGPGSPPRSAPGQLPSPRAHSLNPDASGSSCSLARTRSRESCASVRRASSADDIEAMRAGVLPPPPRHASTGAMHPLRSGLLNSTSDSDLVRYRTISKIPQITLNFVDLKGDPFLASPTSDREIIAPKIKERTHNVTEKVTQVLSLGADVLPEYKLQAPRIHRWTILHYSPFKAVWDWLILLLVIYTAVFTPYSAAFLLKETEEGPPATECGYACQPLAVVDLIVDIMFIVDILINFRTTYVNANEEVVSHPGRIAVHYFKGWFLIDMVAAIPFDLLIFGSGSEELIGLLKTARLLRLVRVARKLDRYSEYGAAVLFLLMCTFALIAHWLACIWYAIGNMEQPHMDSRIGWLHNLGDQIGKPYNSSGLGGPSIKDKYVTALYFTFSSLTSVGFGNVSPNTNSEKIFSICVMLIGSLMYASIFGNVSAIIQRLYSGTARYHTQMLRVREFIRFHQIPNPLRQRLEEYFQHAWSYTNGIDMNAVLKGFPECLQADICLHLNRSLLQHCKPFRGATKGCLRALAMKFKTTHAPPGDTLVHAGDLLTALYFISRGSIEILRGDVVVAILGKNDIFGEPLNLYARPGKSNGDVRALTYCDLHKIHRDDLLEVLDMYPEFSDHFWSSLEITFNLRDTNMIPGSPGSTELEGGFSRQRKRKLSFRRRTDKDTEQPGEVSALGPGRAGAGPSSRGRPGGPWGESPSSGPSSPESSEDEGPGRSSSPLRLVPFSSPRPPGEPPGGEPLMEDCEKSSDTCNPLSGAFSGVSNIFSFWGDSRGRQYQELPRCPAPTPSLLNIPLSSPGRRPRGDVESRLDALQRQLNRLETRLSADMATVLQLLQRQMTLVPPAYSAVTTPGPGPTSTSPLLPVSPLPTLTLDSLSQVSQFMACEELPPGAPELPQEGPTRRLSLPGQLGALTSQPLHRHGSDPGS

| Compound | hERG current change (%, negative = inhibition) at 10uM |
| --- | --- |
| Cc1cccc2sc(N3CCN(C(=O)c4cccs4)CC3)nc12 | -9.51% |
| Cc1sc(NC(=O)CN(CCc2ccccc2)C(=O)C2CC2)c(C(N)=O)c1C | -12% |
| O=C(c1ccccc1Br)N(Cc1ccccc1)c1ccccc1 | 14.6% |
| Cc1ccc(C(=O)CCC(=O)N(C)CC(=O)Nc2c(Cl)cccc2Cl)cc1 | 8.91% |
| COc1ccccc1OCCCCCc1c(C)n[nH]c1C | -4.16% |
| COc1cc(NC(=O)c2c(OC)cccc2OC)ccc1NC(=O)c1cc2ccccc2o1 | 10.4% |
| O=C1C2C3C=CC(C3)C2C(=O)N1c1ccc2ccccc2c1 (centres unmarked) | 13.3% |
| CCn1cc(C(=O)O)c(=O)c2cc(F)c(N3CCN(C(=S)NC(=O)c4ccccc4)CC3)cc21 | 13.7% |
| Cc1cc2oc(C(=O)Nc3c(C)n(C)n(-c4ccccc4)c3=O)c(C)c2cc1C | -24% |
| COc1ccc(S(=O)(=O)NCc2ccc(F)cc2)cc1OC | 5.39% |
| COc1ccccc1CN1CC(C(=O)NCc2cnn(C)c2)CCC1=O (centres unmarked) | 13.6% |
| CCC(C)NC(=O)COc1ccc(S(=O)(=O)N2CCOCC2)cc1 (centres unmarked) | -11.6% |
| CC1CCCN(C(=O)c2cccc(S(=O)(=O)N3CCCC3)c2)C1 (centres unmarked) | -1.31% |
| Cc1cccc(NC(=O)Cc2nnc(NC(=O)Nc3ccccc3F)s2)c1 | -10.9% |
| CC(C)CCC1(CCNC(=O)c2cccs2)CCOC(C)(C)C1 (centres unmarked) | -8.99% |
| C=CCn1c(SCc2nc3c(c(=O)[nH]c(=O)n3CCCC)n2CCC)nnc1-c1ccccc1 | -60.5% |
| Cc1nn(-c2ccccc2)c(C)c1NC(=O)COC(=O)c1cc(Cl)ccc1O | -12.9% |
| COc1ccccc1OC(C)C(=O)N1CCC(Cc2ccccc2)CC1 (centres unmarked) | -12.6% |
| CCn1cc(C(=O)NNC(=O)c2ccc(Cl)cc2)c(=O)c2ccc(C)nc21 | 22.6% |
| Cc1cc(Nc2ccccc2F)n2nc(C)nc2n1 | 5.99% |
| Cc1cccc(C(=O)Oc2ccc3ccc(O)cc3c2)c1 | 14.6% |
| CCOc1ccc(N2CC(C(=O)NCc3ccco3)CC2=O)cc1 (centres unmarked) | -8.63% |

| Compound | hERG current change (%, negative = inhibition) at 10uM |
| --- | --- |
| NS(=O)(=O)c1ccc(NC(=O)c2cc(=O)c3ccccc3o2)cc1 | 28.7% |
| Cc1c(NC(=O)c2ccc(NS(=O)(=O)c3ccccc3)cc2)c(=O)n(-c2ccccc2)n1C | -25.6% |
| Cc1cc(C)c[n+](-c2[nH]c(=O)sc2/C=N/N=C(\[O-])c2cccnc2)c1 | 12.6% |
| CCOC(=O)C1CCN(C(=O)C2CCN(S(=O)(=O)c3ccc4ccccc4c3)CC2)CC1 | -6.4% |
| Cc1cc(N(C)NC(=S)Nc2ccccc2)nc(C)n1 | 17.7% |
| CCCCN(C)C(=O)c1cn(C)c2ccc(S(=O)(=O)N(C)C)cc2c1=O | 8.34% |
| C/C(=N\NC(=O)C1CCCC1)c1ccc(C(C)C)cc1 | -39.9% |
| CC(=O)Nc1ccc(C(=O)OCc2ccccc2Br)cc1 | 6.08% |
| CC(NCCc1ccc(O)cc1)C(O)c1ccc(O)cc1.Cl (centres unmarked) | 5.08% |
| CN1C(C(=O)NCC2CC2)CC2Cn3c(nc4ccccc43)C21 (centres unmarked) | 15.5% |
| Cc1ccc(NC(=O)c2ccc([N+](=O)[O-])cc2Cl)nc1 | -7.36% |
| CCC(C)N(C(=O)CSc1nnc(NC(C)C)s1)C1CCS(=O)(=O)C1 (centres unmarked) | -5.38% |
| CCNC(=S)N1CCN(CCN=CC2=C(O)CC(c3ccco3)CC2=O)CC1 (centres unmarked) | 0.166% |
| O=C(Nc1cccc(OCC(=O)N2CCOCC2)c1)c1cccc(Cl)c1 | 2.04% |
| Cc1nnc2n(-c3ccccc3)c(=O)c3c4c(sc3n12)CC(C)CC4 (centres unmarked) | -17.9% |
| O=C(CCC1CCCC1)N1CCN(S(=O)(=O)Cc2ccccc2)CC1 | -1.81% |
| CCCCOc1cccc(C(=O)NC(=S)Nc2ccc(Cl)c(C(=O)O)c2)c1 | 28.9% |
| Cc1ccc2c(c1)nnn2C1CCN(C(=O)Nc2ccccc2C)CC1 | -22.6% |
| CCOC(=O)N1CCC(N2C(=O)c3ccc(C(=O)Nc4ccc(OC)c(OC)c4)cc3C2=O)CC1 | 23.2% |
| COc1ccc(/C=C/c2cc(C(F)(F)F)on2)cc1 | 16.4% |
| O=C(NCc1ccco1)c1ccc(Cn2c(=O)c3ccccc3n(Cc3ccc(Cl)cc3)c2=O)cc1 | 8.16% |
| S=C(NCc1ccncc1)NC1CCCC1 | 17.3% |
